From patent US10596264B2, “Peptides with viral infection enhancing properties and their use” (Genethon, priority 2011, dated 2020)
Read-outs that look alike come from different tables or passages of the source. At least one peptide structure holds a part that was inferred or is arguable (an end, a ring closure or a residue). Some compounds share one wording; it may come from a single statement. Some entries share one result that the patent states for a list of compounds. Where no end group is shown, it is not given here.

Experiments:
human CD34+ cells [1] = format: cell-based
[2] = test system: human hematopoietic cells engraftment; conditions: mouse, in vivo
human CD34+ cells [3] = format: cell-based; conditions: GALVTR-MLV 5×10E5 TU/ml; peptide 12 μg/ml
human CD34+ cells [4] = format: cell-based; remark: listed apart in the source
[5] = test system: HCT116 cells (293T cells for transduction with GP64-LVs); format: cell-based, human
293T cells = test: Transfection of 293T cells with pEGFP-C1 in presence of peptides; format: cell-based; conditions: 1 μg pEGFP-C1, 48 h
Experimental: FIG. 11. Transfection of 293T cells with pEGFP in presence of LAH4-A4, LAH4-L1 or K2-L10A12-K2 peptides. pEGFP-C1 (1 μg) was mixed in 50 μl of 150 mM NaCl solution with either 3 μg, 4.5 μg, 6 μg or 9 μg of LAH4-A4 or 6 μg of LAH4-L1 or 6 μg of K2-L10A12-K2. Next, the DNA/peptide mix was diluted in 200 μl of DMEM without FCS and loaded onto cell monolayers. 3 hours post-transfection, the medium was replaced with DMEM containing 10% FCS. 48 h later, transfection efficiencies were estimated by monitoring GFP expression using flow cytometry. Data are the average of two independent experiments performed in duplicate with SD.
293T cells (1.5×10E5/well) were plated in 48-well plates the day before transfection. For transfection, 1 μg of pEGFP-C1 was mixed with the desired amount of peptide in 50 μl of 150 mM NaCl solution, vortexed and incubated 15 min at room temperature. Next, the DNA/peptide mix was diluted in 200 μl of DMEM without FCS and loaded onto cell monolayers. 3 hours post-transfection, the medium was replaced with DMEM containing 10% FCS. 48 h later, transfection efficiency was estimated by monitoring GFP expression using flow cytometry.

## ALLHAALAHLLALAHHLLALLKKA-NH2 [LAH4-A4-dKN]
Human CD34+ cells [1]
  Transduction efficiency compared with LAH4-A4 (in words): not detectable

## KKALLAHALHLLALLALHLAHALKKA-NH2 [LAH4-L1]
[2]
  Detection of transduced human CD45+ cells in the blood, bone marrow, spleen and thymus: easily detectable
Human CD34+ cells [3]
  Promotion of virus entry / transduction efficiency (GFP+ cells): promoted entry of both viruses
Human CD34+ cells [4]
  Promotion of virus entry / transduction efficiency (GFP+ cells): promoted entry of both viruses
[5]
  LV infectivity (fold of enhancement of GFP+ cells): promotes LV infectivity at different extent
  Transduction of target cells by virus-like particles (VLPs, no envelope glycoprotein): unable to transduce target cells
Human CD34+ cells [1]
  Transduction of hCD34+ cells as a function of GALVTR-LV input: increasing proportionally to GALVTR-LV input
293T cells; peptide 24 μg/ml
  Transfection of 293T cells with GFP plasmid: highly efficient transfection

## KKALLAKALKLLALLALKLAKALKKA-NH2 [LAK4-L1]
Human CD34+ cells [1]
  Transduction efficiency compared with LAH4-L1 (in words): detrimental

## KKALLHAALAHLLALAAALLALLKKA-NH2 [LAH2-A6]
Human CD34+ cells [1]
  Transduction efficiency compared with LAH4-A4 (in words): as efficiently as LAH4-A4

## KKALLHAALAHLLALAHHLLALKK (LAH4-A4-d2Caa)
Human CD34+ cells [1]
  hCD34+ transduction level compared to LAH4-A4: below 15%

## KKALLHAALAHLLALAHHLLALLKKA-NH2 [LAH4-A4]
Human CD34+ cells [3]
  Promotion of virus entry / transduction efficiency (GFP+ cells): promoted entry of both viruses
Human CD34+ cells [4]
  Promotion of virus entry / transduction efficiency (GFP+ cells): promoted entry of both viruses
Human CD34+ cells [1]
  Transduction efficiency compared with SEVI: more efficient than in presence of SEVI
  Transduction efficiency relative to LAH4-L1 in dose response curves: approximately four times more efficient than LAH4-L1
293T cells; peptide 12 μg/ml
  Transfection of 293T cells with GFP plasmid: not sufficient to efficiently promote the transfection
293T cells; peptide 24 μg/ml
  Transfection of 293T cells with GFP plasmid: highly efficient transfection

## KKALLHALLAHLAALLHALLAHLKKA-NH2 [LAH4-A5]
Human CD34+ cells [3]
  Promotion of virus entry / transduction efficiency (GFP+ cells): promoted entry of both viruses
Human CD34+ cells [4]
  Promotion of virus entry / transduction efficiency (GFP+ cells): promoted entry of both viruses
Human CD34+ cells [1]
  Capacity to promote transduction of hCD34+ cells with GALVTR-LVs, ranking within L and A series of isomers: highly efficient

## KKALLHLALLHAALLAHHLALALKKA-NH2 [LAH4-L4ISO]
Human CD34+ cells [3]
  Promotion of virus entry / transduction efficiency (GFP+ cells): promoted entry of both viruses
Human CD34+ cells [4]
  Promotion of virus entry / transduction efficiency (GFP+ cells): promoted entry of both viruses

## KKLHAALAHLLALAHHLLAKK (LAH4-A4-d5aa)
Human CD34+ cells [1]
  hCD34+ transduction level compared to LAH4-A4: below 15%

## KKLHAALAHLLALAHHLLALLKK (LAH4-A4-d3aa)
Human CD34+ cells [1]
  hCD34+ transduction level compared to LAH4-A4: below 15%

## RRALLAHALHLLALLALHLAHALRRA-NH2 [LAH4-L1-R]
Human CD34+ cells [1]
  Transduction efficiency compared with LAH4-L1 (in words): as efficient as LAH4-L1
